From PubChem BioAssay AID2675 (National Center for Advancing Translational Sciences (NCATS), 2010)
Screen size: about 280,000 compounds; about 100 (0.036%) were called active. The inconclusive results got no clear call from the source; some entries with a clear call stand among them for comparison. Calls come from the whole dose curve; as a rule, active = well fitted inhibition curve with a large enough effect in the signal ratio, with a control signal flat (not every such curve was filed as active); inconclusive = small, poorly fitted or top-dose-only effect, or effect the other way, or a change in a side signal; inactive = no such curve, though single readings can be large or run the other way; the % refers to the signal ratio. A potency beside an inconclusive call is a rough fit, not a confirmed value. “Side channel” marks fits to a control or component signal instead of the main read-out.

Molecular target: Muscleblind-like protein 1 (Homo sapiens) (UniProt Q9NR56)
Assay: qHTS Assay for Inhibitors of MBNL1-poly(CUG) RNA binding
Details: TR-FRET MBNL1-His/biotin-(CUG)12 binding, 665/545 ratio; activity change, negative = inhibition: at 57.5 µM (top of the series)
Method in brief: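 Compounds (final 92 nM to 58 uM) are added to His-tagged MBNL1 and biotin-(CUG)12, then terbium anti-His antibody and streptavidin-XL665 (5 nM final). After 60 min at room temperature, the 665/545 nm ratio is read.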
% is set by controls: 0 for no effect and ±100 for the full control effect; potency is the fitted concentration of half-maximal effect; tags give direction and shape of the fitted curve or compound fluorescence and quenching.

Chain of UniProt Q9NR56 (Q9NR56 whole entry, looked up): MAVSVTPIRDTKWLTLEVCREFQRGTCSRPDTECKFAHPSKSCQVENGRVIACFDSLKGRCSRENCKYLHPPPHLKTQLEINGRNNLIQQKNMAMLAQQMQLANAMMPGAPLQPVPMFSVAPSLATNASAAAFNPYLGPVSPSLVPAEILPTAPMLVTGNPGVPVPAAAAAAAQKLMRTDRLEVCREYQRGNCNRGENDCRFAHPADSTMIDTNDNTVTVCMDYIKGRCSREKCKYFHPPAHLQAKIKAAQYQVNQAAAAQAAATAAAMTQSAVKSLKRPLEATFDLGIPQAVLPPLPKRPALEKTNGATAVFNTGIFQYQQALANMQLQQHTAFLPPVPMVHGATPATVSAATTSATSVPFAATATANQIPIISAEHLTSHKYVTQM

SMILES | Potency | activity change, negative = inhibition
CS(=O)(=O)c1ccc(NCC2CCCO2)c([N+](=O)[O-])c1 (centres undefined) | inconclusive: 15.8 µM [quencher, side channel, partial curve] | 
Cc1occc1C(=O)N/N=C/C=C\c1ccccc1[N+](=O)[O-] | inconclusive: 12.6 µM [quencher, side channel, partial curve] | 
O=C(Nc1ccc(F)cc1)C1CCCN1S(=O)(=O)c1cccc2nsnc12 (centres undefined) | inconclusive: 3.98 µM [quencher, side channel, full curve] | 
CCOCCCn1c(=N)c(C(N)=S)cc2c(=O)n3cccc(C)c3nc21 | inconclusive: 17.8 µM [quencher, side channel, partial curve] | 
COc1ccc(C(=O)/C=C/Nc2ccc(NC(C)=O)cc2)cc1OC | inconclusive: 12.6 µM [quencher, side channel, partial curve] | 
COc1ccc(N2CCC(CNC(=O)Nc3cccc(OC)c3)C2)cc1 (centres undefined) | inactive | 
COc1ccc(C(=O)/C=C2\NCC3c4ccccc4CCN3C2=O)cc1 (centres undefined) | inconclusive: 7.08 µM [quencher, side channel, partial curve] | 
COCCCNC(=O)CN(c1cccc(Cl)c1C)S(C)(=O)=O | inconclusive: 39.8 µM [quencher, side channel, single point] | 
COc1ccc([N+](=O)[O-])cc1NC(=O)CCS(=O)(=O)c1ccc(Br)cc1 | inconclusive: 31.6 µM [quencher, side channel, partial curve] | 
Cc1cc2oc(C(=O)NC3CCS(=O)(=O)C3)cc(=O)c2cc1C (centres undefined) | inconclusive: 31.6 µM [quencher, side channel, single point] | 
Cc1ccc(NC(=O)C2CCN(S(=O)(=O)c3cccc4nonc34)CC2)cc1 | inconclusive: 3.98 µM [quencher, side channel, full curve, poor fit] | 
O=C1CCCC/C1=C\Nc1ccc(O)cc1 | inconclusive: 17.8 µM [quencher, side channel, partial curve] | 
CCN(CC)c1ccc(/C=C(/C#N)C(=O)NC(C)C)o1 | inconclusive: 14.1 µM [quencher, partial curve] | 
O=C(/C=C/c1ccc2c(c1)OCO2)c1ccc[nH]1 | inconclusive: 35.5 µM [quencher, side channel, partial curve] | 
CC(COC(=O)c1ccccc1)(COC(=O)c1ccccc1)/[N+]([O-])=C/c1ccccc1 | inconclusive: 0.282 µM [quencher, side channel, full curve, poor fit] | 
COC(=O)CCCC1=CC2=C(c3ccccc3)C(=O)C(C)(OC(=O)C3CCCC3)C(=O)C2=CN1C1CC1 (centres undefined) | inconclusive: 14.1 µM [quencher, side channel, partial curve] | 
CN(C)CCCN=Cc1c(O)n(Cc2ccccc2)c(=O)c2ccccc12 | inconclusive: 15.8 µM [quencher, side channel, partial curve] | 
CC1CCN(c2c([N+](=O)[O-])nn(-c3ccc4c(c3)OCCO4)[n+]2[O-])CC1 | inconclusive: 10 µM [quencher, side channel, partial curve] | 
CCCCN1CC(C(=O)NCc2ccc(C)cc2)CC1=O (centres undefined) | inactive | 
Cc1ccc(C)c(N(C)C(=O)c2ccc3c(=O)n4c(nc3c2)CCCCC4)c1 | inactive | 

SMILES | Potency | activity change, negative = inhibition
Cn1c(N)c(Sc2ccc([N+](=O)[O-])cc2)c(=O)n(C)c1=O | inconclusive: 17.8 µM [quencher, side channel, partial curve] | 
CCN(CC)C(=O)Cn1cc(S(=O)(=O)Cc2cccc([N+](=O)[O-])c2)c2ccccc21 | inconclusive: 6.31 µM [quencher, side channel, partial curve] | 
COc1cccc(/C=C2/SC(=O)N(CC(=O)N3CCc4ccccc4C3)C2=O)c1OCC(=O)O | inconclusive: 28.2 µM [quencher, single point] | 
CCOC(=O)c1c(S(=O)(=O)NCC(=O)Nc2cccc(C)c2C)c(C)n(C)c1C | inactive | 
Cc1ccc2nc(-c3ccc(SCC(=O)O)nc3)[nH]c2c1 | inactive | 
COC(=O)c1ccc2c(c1)C(C)(C)C(/C=C/c1ccccc1O)=[N+]2C | inconclusive: 15.8 µM [quencher, side channel, partial curve] | 
Cc1nn(C(=O)N(C)C)c(C)c1CN1C(=O)c2ccccc2C1=O | inconclusive: 15.8 µM [quencher, side channel, partial curve] | 
O=C(NCCOC(=O)c1ccc(Cl)cc1)c1cccnc1 | inconclusive: 39.8 µM [fluorescent, side channel, single point] | 
Cc1cccc(C)c1OCCn1nnc2ccccc21 | inactive | 
NS(=O)(=O)c1ccc(-c2ccc(/C=C3\SC(=S)N(C4CCS(=O)(=O)C4)C3=O)o2)cc1 (centres undefined) | inconclusive: 11.2 µM [quencher, side channel, partial curve] | 
O=C(COc1cccnc1[N+](=O)[O-])Nc1ccc2c(c1)OCO2 | inconclusive: 11.2 µM [quencher, side channel, partial curve] | 
COc1cc(NC(=O)C2CCCN(S(=O)(=O)c3cccc4nsnc34)C2)cc(OC)c1 (centres undefined) | inconclusive: 25.1 µM [activator, partial curve] | 
CC(C)(C)C(=O)NC(=S)Nc1cc(C(F)(F)F)ccc1N1CCOCC1 | inactive | 
Cc1nn(C)cc1-c1n[nH]c(=S)n1-c1ccc(Cl)cc1 |  | inactive: -17.2% [at 11.5 µM]
Cc1sc(-n2c(C)cc(/C=C3\SC(=S)NC3=O)c2C)c(C#N)c1C | inactive | 
COc1ccc(-c2cc3nc(CCl)[nH]c(=O)c3s2)cc1 | inconclusive: 12.6 µM [quencher, side channel, partial curve] | 
N/C(Cc1ccc([N+](=O)[O-])cc1)=N\OC(=O)c1ccccc1Br | inconclusive: 39.8 µM [quencher, side channel, single point] | 
Cc1cc(C)c(C)c(OCc2nc(-c3cccnc3)no2)c1 | inactive | 
O=C(O)c1cccc(N/N=C/c2cccnc2)c1 | inconclusive: 25.1 µM [quencher, side channel, single point] | 
COc1ccc(NC(=O)CCN2C(=O)[C@@H]3[C@H](C2=O)[C@H]2C=C[C@@H]3C2)cc1 | inactive | 

SMILES | Potency | activity change, negative = inhibition
COC1=C(Nc2ccc(O)cc2)C(=O)c2ccccc2C1=O | inconclusive: 5.62 µM [quencher, side channel, partial curve] | 
Cc1ccc2c(c1)C(O)(c1c(C)[nH]c3ccccc13)C(=O)N2 (centres undefined) | inconclusive: 20 µM [quencher, side channel, partial curve] | 
Clc1ccc(-c2ncc3ccccn23)cc1 | inconclusive: 20 µM [inhibitor, single point] | 
O=C(NCCN=C1NS(=O)(=O)c2ccccc21)c1ccc2nccnc2c1 | inconclusive: 5.01 µM [quencher, side channel, partial curve] | 
CN(C)c1ccc(/C=N/N=C2/SC(CC(=O)O)C(=O)N2c2ccc(O)cc2)cc1 (centres undefined) | inconclusive: 20 µM [quencher, side channel, partial curve] | 
CCc1nc2c(C#N)c(-c3ccc(Cl)cc3)ccn2n1 | inconclusive: 3.16 µM [quencher, side channel, full curve] | 
Cc1cc(Nc2ccc(N3CCOCC3)cc2)c2cccc(C)c2n1 | inconclusive: 14.1 µM [quencher, partial curve] | 
CCc1ccc(S(=O)(=O)/N=C2\C=C(Nc3ccc(C(=O)O)cc3)C(=O)c3ccccc32)cc1 | inconclusive: 14.1 µM [quencher, partial curve] | 
CCOC(=O)N1CCN(C(=O)c2ccc3c(c2)NC(=O)/C(=C\c2ccc(OC)c(OC)c2)S3)CC1 | inconclusive: 100 µM [quencher, side channel, partial curve, poor fit] | 
Oc1ccc2ccccc2c1C=NC12CN3CCN(CN(C3)C1)C2 | inconclusive: 39.8 µM [quencher, side channel, partial curve] | 
CC(=O)N(C)c1ccc(NC(=O)Nc2cccc3ccccc23)cc1 | inconclusive: 31.6 µM [quencher, single point] | 
CC(CC(=O)Nc1cc([N+](=O)[O-])ccc1Cl)c1ccccc1 (centres undefined) | inconclusive: 3.55 µM [quencher, side channel, full curve, poor fit] | 
Cc1nc2ccccn2c1C(=O)N/N=C/c1ccccc1 | inactive | 
Cc1cc(/C=C2/NC(=O)N(c3ccccc3)C2=O)c(C)n1C(C)C | inconclusive: 25.1 µM [quencher, side channel, partial curve, poor fit] | 
Cc1ccc(OCC(O)CN2CCN(Cc3ccc4c(c3)OCO4)CC2)c(C)c1 (centres undefined) | inactive | 
CCOC(=O)c1sc2nc3c(cc2c1N)COC(C)(C)C3 | inconclusive: 3.16 µM [quencher, side channel, full curve, poor fit] | 
O=C(CSc1ccc(-c2nc3ccccc3[nH]2)cn1)Nc1ccc2c(c1)OCCO2 | inconclusive: 44.7 µM [fluorescent, side channel, partial curve, poor fit] | 
Cc1cc(C)c2c(=O)[nH]c(SCC(=O)c3ccc(C)c(C)c3)nc2n1 | inconclusive: 28.2 µM [fluorescent, side channel, single point] | 
Cc1ccc2cc(C=O)c(Cl)nc2c1 | inconclusive: 15.8 µM [quencher, side channel, partial curve] | 
